# Measurements from the supplement of paper PMC4604168 (melanoma cell lines).
# The list shows a part of the results. Repeats are few or missing, and single values can be far off.
# System: G361
# Assay: cell count relative to DMSO control; melanoma cells; higher = more viable cells
# Details: library dose: standard library concentration; 72 h
# 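Further: cells treated in 1,536-well plates, then fixed and DAPI-stained, with nuclei counted from automated high-throughput microscope images.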
row,SMILES,cell count
1,"CCCS(=O)(=O)Nc1ccc(F)c(C(=O)c2c[nH]c3ncc(Cl)cc23)c1F + CCN(CC)CCCCNc1ncc2cc(-c3cc(OC)cc(OC)c3)c(NC(=O)NC(C)(C)C)nc2n1 [PD173074] (first compound 0.4 µM, partner dose 0.5 µM)",82.5%
2,"CN(c1ncccc1CNc1nc(Nc2ccc3c(c2)CC(=O)N3)ncc1C(F)(F)F)S(C)(=O)=O + Cn1c(Nc2ccc(C(F)(F)F)cc2)nc2cc(Oc3ccnc(-c4ncc(C(F)(F)F)[nH]4)c3)ccc21 [CHIR265] (first compound 0.4 µM, partner dose 0.4 µM)",22.2%
3,"C=C(c1ccc(C(=O)O)cc1)c1cc2c(cc1C)C(C)(C)CCC2(C)C [Bexarotene] + CC(=O)c1c(C)c2cnc(Nc3ccc(N4CCNCC4)cn3)nc2n(C2CCCC2)c1=O [palbociclib] (first compound 10 µM, partner dose 0.2 µM)",57.8%
4,"C=C(c1ccc(C(=O)O)cc1)c1cc2c(cc1C)C(C)(C)CCC2(C)C [Bexarotene] + Cc1nc(Nc2ncc(C(=O)Nc3c(C)cccc3Cl)s2)cc(N2CCN(CCO)CC2)n1 [dasatanib] (first compound 10 µM, partner dose 0.02 µM)",72.2%
5,"CCCS(=O)(=O)Nc1ccc(F)c(C(=O)c2c[nH]c3ncc(Cl)cc23)c1F + NCC(=O)Nc1ccc(-n2nc(C(F)(F)F)cc2-c2ccc3c(ccc4ccccc43)c2)cc1 [OSU03012] (first compound 0.4 µM, partner dose 5 µM)",60.8%
